Measurements as given in PubChem BioAssay AID602310 (National Center for Advancing Translational Sciences (NCATS), 2012).
In all, about 410,000 compounds went through this assay and about 310 (0.076%) were called active. The inconclusive results got no clear call from the source; some entries with a clear call stand among them for comparison. Calls come from the whole dose curve; as a rule, active = well fitted curve in the direction sought with a large enough effect; inconclusive = small, poorly fitted or top-dose-only effect; inactive = flat fitted curve, though single readings scatter. A potency beside an inconclusive call is a rough fit, not a confirmed value.

Each molecule was assayed against DNA dC->dU-editing enzyme APOBEC-3G (Homo sapiens) (UniProt Q9HC16) (assay: qHTS for Inhibitors of Vif-A3G Interactions: qHTS). Settings: HeLa A3G-eYFP + Vif (tagged APOBEC3G with the HIV-1 protein that degrades it), YFP fluorescence, overnight; series mostly up to 46.1 µM; activity, negative = active: at the top concentration.
In short: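 HeLa cells stably expressing Vif and C-terminally eYFP-tagged A3G, seeded overnight at 37 deg C, then exposed to compound by pintool overnight at 37 deg C. Rise in yellow fluorescence (Ex 488/Em 500-530, Acumen) marks blocked Vif-driven A3G degradation.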
% is set by controls: 0 for no effect and ±100 for the full control effect; potency is the fitted concentration of half-maximal effect; tags give direction and shape of the fitted curve.
Note: nearly all actives have a fitted effect of over 60% in size.
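Throughout, for activity, negative = active: hits raise eYFP signal because A3G escapes Vif-driven loss.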

Sequence of UniProt Q9HC16 (Q9HC16 whole entry, looked up): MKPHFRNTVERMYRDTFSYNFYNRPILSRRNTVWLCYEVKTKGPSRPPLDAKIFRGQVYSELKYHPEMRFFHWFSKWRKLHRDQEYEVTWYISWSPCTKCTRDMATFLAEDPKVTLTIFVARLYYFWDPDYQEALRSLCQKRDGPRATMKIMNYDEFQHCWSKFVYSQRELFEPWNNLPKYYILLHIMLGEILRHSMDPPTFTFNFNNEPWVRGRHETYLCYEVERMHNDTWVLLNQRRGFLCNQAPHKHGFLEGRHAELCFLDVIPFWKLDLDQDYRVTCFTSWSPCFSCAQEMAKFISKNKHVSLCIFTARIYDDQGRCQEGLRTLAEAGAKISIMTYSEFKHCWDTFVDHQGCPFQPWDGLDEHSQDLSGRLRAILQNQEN

SMILES	activity, negative = active	Potency
Cc1ccc(/C=c2\sc3nc(-c4ccco4)nn3c2=O)o1	inactive: 1.94%	–
Cn1nc(-c2ccccc2)c(CSc2cccc(Cl)c2)c1Cl	–	inconclusive: 7.08 µM [inhibitor, full curve]
Cc1ccc2nc(/C(C#N)=C/c3ccc(-c4ccccc4C(=O)O)o3)[nH]c2c1	–	inconclusive: 11.2 µM [inhibitor, partial curve]
COc1ccc(C2=NOC(C(=O)NCc3ccc(F)cc3)C2)cc1OC (stereo not drawn)	–	inconclusive: 1.12 µM [inhibitor, full curve]
CCNC(=S)NCc1ccc(Cl)cc1	inactive: 1.01%	–
Cc1noc(C)c1COc1ccc(C(=O)NNC(=O)c2ccccc2F)cc1	–	inconclusive: 5.62 µM [inhibitor, full curve]
O=C1C=C(Nc2ccc(Cl)cc2)C(=O)N1c1ccc(Cl)cc1	inactive: -15.2%	–
COc1cccc(F)c1C(C[N+](=O)[O-])c1c(N)n(C)c(=O)n(C)c1=O (stereo not drawn)	–	inconclusive: 5.62 µM [inhibitor, full curve]
O=C(N/N=C/c1ccc([N+](=O)[O-])o1)c1cc(-c2cccc(Br)c2)nc2ccccc12	–	inconclusive: 25.1 µM [inhibitor, single point]
COc1ccc(CC(=O)Nc2cccc(-c3nnc(-c4ccc(C)cc4)o3)c2)cc1OC	inactive: -4.2%	–
Cc1ccc(NC(=O)c2ccc3c(c2)CCN3S(C)(=O)=O)cc1C	inactive: -2.79%	–
COc1cc(O)cc(O)c1C(=O)/C=C/c1ccccc1	–	inconclusive: 10 µM [inhibitor, partial curve]
CCn1c(=O)c2cc(C(=O)NCCc3cccc(C)c3)sc2c2ccccc21	inactive: 4.61%	–
Cc1ccc(Cc2c(C3CCCCC3)nc3ccc(C)cn23)cc1	–	inconclusive: 12.6 µM [inhibitor, partial curve]
Cc1cc(N2CCCC2)ccc1/C=C1\NC(=S)N(C)C1=O	–	inconclusive: 22.4 µM [inhibitor, single point]
CCc1ccc(NC(=O)CSC2=Nc3ccccc3C3=NC(CCC(=O)NCc4ccccc4OC)C(=O)N23)cc1 (stereo not drawn)	inactive: 2.64%	–
O=C(Cc1cc2ccccc2o1)NCc1ccc(F)cc1	–	inconclusive: 6.31 µM [inhibitor, partial curve, poor fit]
CCOC(=O)/C(C#N)=N/Nc1ccccc1OC	inactive: -20.3%	–
NC(=O)c1c(Nc2nc3c(F)cccc3s2)sc2c1CCCC2	–	inconclusive: 15.8 µM [inhibitor, partial curve, poor fit]
C#CCOCCOCCOCCNc1nc(N2CCN(C(=O)CCCCCCCCCCNC(=O)[C@H]([C@@H](C)CC)n3cc(CCCCCN)nn3)CC2)nc(N2CCN(C(=O)CCCCCCCCCCNC(=O)[C@H](CCCCN)n3cc(CCCC(=O)O)nn3)CC2)n1	inactive: -16.8%	–
O=C(OCCN1C(=O)c2cccc3c(N4CCOCC4)ccc(c23)C1=O)c1ccc(Cl)cc1	–	inconclusive: 3.16 µM [inhibitor, single point]
CN(C)CCCN(C(=O)c1ccc2c(c1)CCCC2)c1nc2ccc(F)cc2s1	–	inconclusive: 35.5 µM [inhibitor, partial curve, poor fit]
O=C(CSc1nc(-c2ccccc2)c(-c2ccccc2)[nH]1)NCc1ccco1	–	inconclusive: 7.08 µM [inhibitor, partial curve, poor fit]

SMILES	activity, negative = active	Potency
Cc1ccc(C)c(NC(=O)N2CC=C(c3c[nH]c4ccccc34)CC2)c1	–	inconclusive: 22.4 µM [inhibitor, single point]
COC(=O)CCCCCN1C(=O)/C(=C\c2ccncc2)SC1=S	inactive: -21.9%	–
COc1ccc(OC)c(C(C)NC(=O)c2ccco2)c1 (stereo not drawn)	–	inconclusive: 11.2 µM [inhibitor, single point]
N#Cc1c(-c2ccccc2)cc(-c2ccccc2)nc1SCCC(=O)O	–	inconclusive: 11.2 µM [inhibitor, partial curve]
O=S(=O)(Nc1cccc2ncccc12)c1cccs1	–	inconclusive: 6.31 µM [inhibitor, partial curve]
O=C1/C(=C\c2cc([N+](=O)[O-])ccc2O)SC(=S)N1Cc1ccc(Cl)cc1	–	inconclusive: 14.1 µM [inhibitor, partial curve, poor fit]
Cc1c(C(=O)Nc2cnccn2)oc2ccccc12	–	inconclusive: 8.91 µM [inhibitor, partial curve]
Cc1ccc2nc(C(C)(C)C)c(Cc3ccccc3C(F)(F)F)n2c1	–	inconclusive: 14.1 µM [inhibitor, single point]
C=CCNc1nc2cc(-c3cccc(Cl)c3)sc2c(=O)n1C	–	inconclusive: 11.2 µM [inhibitor, partial curve, poor fit]
O=C(OCc1ccccc1)c1ccc(NCc2cc(O)ccc2O)cc1	–	inconclusive: 7.94 µM [inhibitor, partial curve]
O=C(CCl)N(c1ccccc1)c1c[nH]c2ccccc12	–	inconclusive: 35.5 µM [inhibitor, single point]
Cc1nc2nc(SCC(=O)NCc3ccco3)nn2c(C)c1Cc1ccccc1	–	inconclusive: 35.5 µM [inhibitor, single point]
Oc1c(CN2CCOCC2)cc(CN2CCOCC2)c(O)c1O	inactive: 1.75%	–
S=C(NCc1ccc(Cl)cc1)Nc1ccc(Cl)cc1Cl	inactive: -0.747%	–
O=C(Cn1c(C(=O)c2ccccc2)nc2ccccc21)c1ccc(Cl)cc1	–	inconclusive: 3.55 µM [inhibitor, single point]
N#CC(C#N)=C1C=CC=CN1/C(=C\c1ccco1)C(=O)c1ccc(-c2ccccc2)cc1	inactive: -30.5%	–
COCCNC(=S)N/N=C(\C)c1ccccc1O	–	inconclusive: 35.5 µM [inhibitor, single point]
CCOC(=O)NC1(C(F)(F)F)NC(=O)N(c2ccc(C)c(C)c2)C1=O (stereo not drawn)	inactive: -3.06%	–
COc1cccc(NC(=O)CSc2nc3ccccc3nc2N2CCOCC2)c1	–	inconclusive: 25.1 µM [inhibitor, single point]
CCNc1ccc(C(=O)NN=C2CCCC2)cc1[N+](=O)[O-]	–	inconclusive: 35.5 µM [inhibitor, single point]
CCOC(=O)CSC1=C(C#N)C(c2ccccc2OCC)C(C#N)C(=O)N1 (stereo not drawn)	–	inconclusive: 15.8 µM [inhibitor, single point]
CC(=O)Nc1ccc(-c2ccnc3c2CC(C(=O)NCC2CC2)O3)cc1 (stereo not drawn)	–	inconclusive: 11.2 µM [inhibitor, partial curve]
Cn1c2c(c(=O)[nH]c1=O)C(c1cccc(O)c1)C1=C(N2)c2ccccc2C1=O (stereo not drawn)	–	inconclusive: 35.5 µM [inhibitor, single point]

SMILES	activity, negative = active	Potency
CC(C)Oc1cccc(C(=O)NC(=S)Nc2ccc3c4c(cccc24)CC3)c1	inactive: -9.84%	–
Cn1c(=O)c2c(nc(SCC(=O)N3c4ccccc4CCc4ccccc43)n2C)n(C)c1=O	inactive: 1.28%	–
Cc1ccc(N2CCN(C(=O)c3c(C)oc4ncn(CC(C)C)c(=O)c34)CC2)c(C)c1	inactive: 2.63%	–
O=C(/C=C/c1cccc(O)c1)c1ccc(N2CCOCC2)cc1	–	inconclusive: 12.6 µM [inhibitor, single point]
COC(=O)c1c(N2C(=O)[C@H]3[C@@H](C2=O)[C@]2(C(=O)Nc4c(C)cccc42)N2CCC[C@@H]32)sc(C)c1C	–	inconclusive: 7.94 µM [inhibitor, partial curve]
CC(=O)c1ccc(-c2cnc3c(NC=O)cc(-c4cccc(NS(C)(=O)=O)c4)cn23)cc1	–	inconclusive: 22.4 µM [inhibitor, single point]
CC(C)(C)c1ccc(-c2conc2N)cc1	inactive: 0.38%	–
CCC(C)Sc1cc(-c2nc3ccc(C)cn3c2NCc2ccccc2)ccc1OC (stereo not drawn)	inactive: -6.55%	–
CC(=O)Nc1cc(-c2ccccc2CN(C)C)cn2c(-c3ccc(C(C)=O)cc3)cnc12	–	inconclusive: 7.08 µM [inhibitor, full curve, poor fit]
OC[C@H]1O[C@@H](n2cnc3c(NCc4ccco4)ncnc32)[C@H](O)[C@@H]1O	–	inconclusive: 22.4 µM [inhibitor, single point]
Cc1ccc(/C=N/NC(=O)c2cc(C3CC3)nc3ccccc23)o1	–	inconclusive: 7.08 µM [inhibitor, full curve, poor fit]
Cc1ccc(C2c3[nH]c4ccccc4c3CCN2C(=O)c2cccc(C)c2)cc1 (stereo not drawn)	–	inconclusive: 20 µM [inhibitor, partial curve, poor fit]
COc1ccc(NC(=O)CCn2c(=O)c3cccn3c3cccnc32)c(OC)c1	–	inconclusive: 22.4 µM [inhibitor, single point]
COc1ccccc1OC(C)C(=O)Nc1ccc(-c2nc3ccccc3s2)cc1 (stereo not drawn)	inactive: 1.69%	–
O=C(NC1CCCCC1)C(c1ccncc1)N(Cc1ccc(F)cc1)C(=O)c1ccccn1 (stereo not drawn)	inactive: 0.701%	–
CCn1ncc(/C=N\NC(=O)c2csc3ccccc23)c1C	–	inconclusive: 11.2 µM [inhibitor, partial curve]
Cc1ccsc1C1Nc2ccc3ncccc3c2C2=C1C(=O)CCC2 (stereo not drawn)	–	inconclusive: 35.5 µM [inhibitor, single point]
COc1cccc(-c2cnc3c(NC(C)=O)cc(-c4cccc(C(=O)N(C)C)c4)cn23)c1	–	inconclusive: 22.4 µM [inhibitor, single point]
COC(=O)CSc1nc2c(c(-c3ccco3)c1C#N)CCCC2	inactive: -1.69%	–
CNC(=S)N/N=C/c1ccc(-c2ccc(Cl)c([N+](=O)[O-])c2)o1	inactive: -0.432%	–
O=C(Nc1nc2ccc(S(=O)(=O)N3CCCC3)cc2s1)C1CCCCC1	–	inconclusive: 3.98 µM [inhibitor, full curve]
COC(=O)C/C(O)=C(/N=Nc1cccc(C(F)(F)F)c1)C(=O)OC	inactive: -0.707%	–
